Test results from publication PMC4401446, “Structural Effects of Protein Aging: Terminal Marking by Deamidation in Human Triosephosphate Isomerase” (PLoS ONE, 2015).

Target: the molecule itself
Test: SEC; protein at 500 ug/mL incubated 3 hours at 30°C, then Superdex 75 in 50 mM Tris-HCl pH 8.0, 150 mM NaCl, 5% (v/v) glycerol, calibrated with molecular mass standards; dimer to monomers

B1: human triosephosphate isomerase, wild type (enzyme)
chain: not shown
notes: Triosephosphate isomerase, human; the WT HsTIM gene subcloned into pET-HisTEVP (NdeI/BamHI); also called HsTIM; WT HsTIM; source: E. coli BL21-CodonPlus (DE3)-RIL, purified (IMAC, TEVP cleavage, second IMAC); not shown: His6, N-terminal, cleaved
stoichiometry N: 2
